Experimental data from PMC9911399, “Two distinct binding modes provide the RNA-binding protein RbFox with extraordinary sequence specificity”.
Where a chain is given by its changes, count along the chain named. The list shows a part of the results.

T1: RBFOX1 RRM RbFoxmut (Fox-RRM*) (Homo sapiens, UniProt Q9NWB1 109-208, R118D;E147R;N151S;E152T)
T1 sequence: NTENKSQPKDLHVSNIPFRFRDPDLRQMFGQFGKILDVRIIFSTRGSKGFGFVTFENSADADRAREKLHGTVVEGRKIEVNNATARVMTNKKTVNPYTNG

B1: GAGCUGA (DNA:RNA)
RNA: GGGAGACCGGAAUUCAGAUUGUCCGAGCUGAUUAAAUCCCGUCGUAGCCACCA
DNA 1: CAATCTGAATTCCGGTCTCCC
DNA 2: TGGTGGCTACGACGGGATT
B2: UCUGUAU (DNA:RNA)
RNA: B1 RNA with G25U, A26C, G27U, C28G, G30A, A31U
DNA 1: CAATCTGAATTCCGGTCTCCC
DNA 2: TGGTGGCTACGACGGGATT
B3: AUUUGCA (DNA:RNA)
RNA: B1 RNA with G25A, A26U, G27U, C28U, U29G, G30C
DNA 1: CAATCTGAATTCCGGTCTCCC
DNA 2: TGGTGGCTACGACGGGATT
B4: UCCGUGU (DNA:RNA)
RNA: B1 RNA with G25U, A26C, G27C, C28G, A31U
DNA 1: CAATCTGAATTCCGGTCTCCC
DNA 2: TGGTGGCTACGACGGGATT
B5: AGCGUAG (DNA:RNA)
RNA: B1 RNA with G25A, A26G, G27C, C28G, G30A, A31G
DNA 1: CAATCTGAATTCCGGTCTCCC
DNA 2: TGGTGGCTACGACGGGATT
B6: GCGCUAA (DNA:RNA)
RNA: B1 RNA with A26C, G30A
DNA 1: CAATCTGAATTCCGGTCTCCC
DNA 2: TGGTGGCTACGACGGGATT
B7: GGGUUUU (DNA:RNA)
RNA: B1 RNA with A26G, C28U, G30U, A31U
DNA 1: CAATCTGAATTCCGGTCTCCC
DNA 2: TGGTGGCTACGACGGGATT
B8: UAUCGUA (DNA:RNA)
RNA: B1 RNA with G25U, G27U, U29G, G30U
DNA 1: CAATCTGAATTCCGGTCTCCC
DNA 2: TGGTGGCTACGACGGGATT
B9: UCAUGAG (DNA:RNA)
RNA: GGGAGACCGGAAUUCAGAUUGUCCUCAUGAGUUAAAUCCCGUCGUAGCCACCA
DNA 1: CAATCTGAATTCCGGTCTCCC
DNA 2: TGGTGGCTACGACGGGATT
B10: UCAGAGU (DNA:RNA)
RNA: B9 RNA with U28G, G29A, A30G, G31U
DNA 1: CAATCTGAATTCCGGTCTCCC
DNA 2: TGGTGGCTACGACGGGATT
B11: CGGAAAU (DNA:RNA)
RNA: B1 RNA with G25C, A26G, C28A, U29A, G30A, A31U
DNA 1: CAATCTGAATTCCGGTCTCCC
DNA 2: TGGTGGCTACGACGGGATT
B12: CCUUGGG (DNA:RNA)
RNA: B9 RNA with U25C, A27U, A30G
DNA 1: CAATCTGAATTCCGGTCTCCC
DNA 2: TGGTGGCTACGACGGGATT
B13: AGCGUUG (DNA:RNA)
RNA: B1 RNA with G25A, A26G, G27C, C28G, G30U, A31G
DNA 1: CAATCTGAATTCCGGTCTCCC
DNA 2: TGGTGGCTACGACGGGATT
B14: AGACACU (DNA:RNA)
RNA: B1 RNA with G25A, A26G, G27A, U29A, G30C, A31U
DNA 1: CAATCTGAATTCCGGTCTCCC
DNA 2: TGGTGGCTACGACGGGATT
B15: UGUCUUA (DNA:RNA)
RNA: B1 RNA with G25U, A26G, G27U, G30U
DNA 1: CAATCTGAATTCCGGTCTCCC
DNA 2: TGGTGGCTACGACGGGATT
B16: ACCUGGU (DNA:RNA)
RNA: B9 RNA with U25A, A27C, A30G, G31U
DNA 1: CAATCTGAATTCCGGTCTCCC
DNA 2: TGGTGGCTACGACGGGATT
B17: CAUACGG (DNA:RNA)
RNA: B1 RNA with G25C, G27U, C28A, U29C, A31G
DNA 1: CAATCTGAATTCCGGTCTCCC
DNA 2: TGGTGGCTACGACGGGATT
B18: AUUGCGA (DNA:RNA)
RNA: B1 RNA with G25A, A26U, G27U, C28G, U29C
DNA 1: CAATCTGAATTCCGGTCTCCC
DNA 2: TGGTGGCTACGACGGGATT
B19: UUUAUGG (DNA:RNA)
RNA: B1 RNA with G25U, A26U, G27U, C28A, A31G
DNA 1: CAATCTGAATTCCGGTCTCCC
DNA 2: TGGTGGCTACGACGGGATT
B20: AUAGCGG (DNA:RNA)
RNA: B9 RNA with U25A, C26U, U28G, G29C, A30G
DNA 1: CAATCTGAATTCCGGTCTCCC
DNA 2: TGGTGGCTACGACGGGATT

Each binder was assayed against T1, RBFOX1 RRM RbFoxmut (Fox-RRM*) (assay: EMSA; HiTS-Eq, 1 nM pool, 10 min; buffer printed only for the single-RNA assays: 10 mM Tris pH 7.5, 150 mM NaCl, 3.4 mM EDTA, 0.001% NP-40, 30 C). Settings: tags: His6 N-terminal (pET28a); label: 5' 32P.
Method in brief: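 Purified RbFox RRM (wild type or mutant) was equilibrated for 10 min in 50 µL with 1 nM of a 5′-radiolabelled pool of RNA with 7 randomized nucleotides, its flanks annealed to DNA oligonucleotides, across increasing protein concentrations. Free RNA was separated by 8% native PAGE, excised, reverse-transcribed, PCR-barcoded and sequenced on an Illumina HiSeq 2500. Relative association constants came from read-count changes of each variant against the control reaction, normalised to the cognate motif.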

| Binder | binding signal |
| --- | --- |
| B1 | 0.075 KA relative to UGCAUGU |
| B2 | 0.154 KA relative to UGCAUGU |
| B3 | 0.239 KA relative to UGCAUGU |
| B4 | 0.119 KA relative to UGCAUGU |
| B5 | 0.162 KA relative to UGCAUGU |
| B6 | 0.0854 KA relative to UGCAUGU |
| B7 | 0.0749 KA relative to UGCAUGU |
| B8 | 0.123 KA relative to UGCAUGU |
| B9 | 0.119 KA relative to UGCAUGU |
| B10 | 0.141 KA relative to UGCAUGU |
| B11 | 0.0824 KA relative to UGCAUGU |
| B12 | 0.0748 KA relative to UGCAUGU |
| B13 | 0.202 KA relative to UGCAUGU |
| B14 | 0.0461 KA relative to UGCAUGU |
| B15 | 0.132 KA relative to UGCAUGU |
| B16 | 0.118 KA relative to UGCAUGU |
| B17 | 0.101 KA relative to UGCAUGU |
| B18 | 0.0788 KA relative to UGCAUGU |
| B19 | 0.0799 KA relative to UGCAUGU |
| B20 | 0.0919 KA relative to UGCAUGU |
